Source: article PMC4336329 (PLoS ONE, 2015)
The campaign covered roughly 310,000 compounds. About 2,200 (0.71%) showed an effect of 50% or more. Effects have a minus sign here. The list shows a part of the results.

Each compound was assayed against human ether-à-go-go-related gene (hERG) potassium channel (human, UniProt Q12809) (assay: primary screen, population patch clamp on CHO cells stably expressing hERG).
Sequence of human ether-à-go-go-related gene (hERG) potassium channel (Q12809 whole entry, looked up): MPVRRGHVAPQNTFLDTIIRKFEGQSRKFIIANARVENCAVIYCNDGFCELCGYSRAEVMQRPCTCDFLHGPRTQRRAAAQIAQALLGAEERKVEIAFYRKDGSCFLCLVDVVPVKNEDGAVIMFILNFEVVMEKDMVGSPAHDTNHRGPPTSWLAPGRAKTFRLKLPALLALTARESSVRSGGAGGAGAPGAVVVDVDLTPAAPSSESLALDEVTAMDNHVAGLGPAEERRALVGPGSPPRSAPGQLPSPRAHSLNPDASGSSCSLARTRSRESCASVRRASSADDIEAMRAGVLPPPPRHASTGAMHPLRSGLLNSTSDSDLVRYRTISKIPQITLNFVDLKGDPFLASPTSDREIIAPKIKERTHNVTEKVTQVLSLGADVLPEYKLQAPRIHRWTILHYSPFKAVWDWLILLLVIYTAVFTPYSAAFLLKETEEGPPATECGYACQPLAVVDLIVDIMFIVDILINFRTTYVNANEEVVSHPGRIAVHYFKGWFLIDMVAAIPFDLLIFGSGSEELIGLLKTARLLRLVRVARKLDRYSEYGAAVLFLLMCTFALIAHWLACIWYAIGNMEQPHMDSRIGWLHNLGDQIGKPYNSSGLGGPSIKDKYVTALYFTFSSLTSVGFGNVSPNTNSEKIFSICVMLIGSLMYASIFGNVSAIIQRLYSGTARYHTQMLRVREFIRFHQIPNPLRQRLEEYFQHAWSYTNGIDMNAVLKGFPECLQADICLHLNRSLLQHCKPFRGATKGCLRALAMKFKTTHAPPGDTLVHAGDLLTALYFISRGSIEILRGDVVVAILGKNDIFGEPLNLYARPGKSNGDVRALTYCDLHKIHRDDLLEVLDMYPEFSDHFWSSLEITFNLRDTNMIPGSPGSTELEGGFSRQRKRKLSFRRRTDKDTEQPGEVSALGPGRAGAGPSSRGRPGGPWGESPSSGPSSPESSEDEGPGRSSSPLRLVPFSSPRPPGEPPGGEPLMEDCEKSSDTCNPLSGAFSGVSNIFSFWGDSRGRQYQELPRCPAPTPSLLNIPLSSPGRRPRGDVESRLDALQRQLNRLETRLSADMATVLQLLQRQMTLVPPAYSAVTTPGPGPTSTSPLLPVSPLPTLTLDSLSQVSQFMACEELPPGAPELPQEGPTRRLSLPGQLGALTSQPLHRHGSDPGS

SMILES | hERG current change (%, negative = inhibition) at 1uM
O=C1CCCC2=C1C(c1ccco1)Nc1ccc3ccccc3c12 (centres unmarked) | -10.1%
COc1cc(NC(=S)Nc2ccc(OC(F)F)cc2)cc(OC)c1 | 3.33%
Cc1cccc(NC(=O)C2CCN(S(=O)(=O)c3cccc4cccnc34)CC2)n1 | 7.96%
Cn1c(=O)n(CC(=O)N2CCC3(CC2)OCCO3)c(=O)c2ccccc21 | 2.78%
Cc1ccc(C)c(S(=O)(=O)NC2CCS(=O)(=O)C2)c1 (centres unmarked) | 5.88%
O=C(/C=C\Nc1ccc2c(c1)OCO2)c1ccccn1 | 11.9%
COC(=O)c1ccc(NC(=O)C(=O)c2cn(CC(=O)N3CCOCC3)c3ccccc23)cc1 | 1.33%
FC(F)(F)c1nnc(-c2ccccc2)nc1Oc1ccc(Cl)cc1Cl | 12.7%
COc1ccc(/C=N/N2CCOCC2)cc1OCc1ccccc1 | 5.61%
CCN1CCN(S(=O)(=O)c2ccc(S(=O)(=O)NCC3CCCO3)cc2)CC1 (centres unmarked) | 16.4%
Cc1cc(NC(=O)c2ccccc2-c2ccccc2C(=O)O)no1 | 2.07%
Cn1c(=O)c2c(nc(SCCCO)n2Cc2ccccc2Cl)n(C)c1=O | -11.7%
Cc1cccc2cc3c(NC(=O)c4ccccn4)nn(C)c3nc12 | 7.03%
COc1ccc(C2Nc3ccccc3C(=O)N2NS(=O)(=O)c2ccc(C)cc2)cc1OC (centres unmarked) | 9.78%
CCOc1ccccc1OCC(=O)Nc1ccccc1C(=O)NC1CC1 | 15.8%
CC(Cc1ccco1)NC(=O)c1cccc(S(=O)(=O)N(C)C)c1 (centres unmarked) | 11.8%
Cc1ccc(S(=O)(=O)N2CCN(C(=O)CCn3nc(C)c(C)c3C)CC2)cc1 | 23.1%
COc1ccccc1NS(=O)(=O)c1ccc(C(=O)N2CCCC(C(F)(F)F)C2)cc1 (centres unmarked) | 5.56%
CCOc1cc(C2NC(=O)NC(C)=C2C(=O)NCc2ccccc2)c(Cl)cc1O (centres unmarked) | -6.28%
O=C(CSc1ccc2ccccc2c1)Nc1ccncc1 | 7.51%
O=C(O)Cn1c(=O)c2cccn2c2ccccc21 | 18%
COCCNc1nnc(Cc2ccccc2)c(=O)[nH]1 | 19.5%
CCC(C)N1CCCCC1C(=O)Nc1c(C)cc(C)cc1C.Cl (centres unmarked) | 9.65%

SMILES | hERG current change (%, negative = inhibition) at 1uM
CCCNC(=O)C(Cc1ccc(Cl)cc1)NC(=O)c1ccc(-c2ccccc2)cc1 (centres unmarked) | 18.6%
Cn1c(=O)c2nc(NCc3ccccc3)cnc2n(C)c1=O | 4.58%
CCCC(=O)Nc1cc(-c2nc3ncccc3o2)ccc1C | 20.2%
Cc1cc(C)cc(NC(=O)C2CCN(C(=O)[C@@H]3Cc4ccccc4CN3)CC2)c1 | -36.9%
C#CCNC(=O)C1=C[C@@H](c2ccc(C(F)(F)F)cc2)C[C@@H](OCCCCO)O1 | -24.5%
Cc1ccc(NC(=O)CCSc2nnc(C)o2)cc1 | 3.34%
O=C1C(=O)N(CNc2ccccn2)c2ccccc21 | 13.4%
Cc1cc2oc(C(=O)Nc3ccc(S(N)(=O)=O)cc3)c(C)c2cc1Cl | 11.7%
Nn1c(SCc2cn3ccccc3n2)nnc1-c1ccncc1 | 5.31%
COc1ccc(CC(=O)Nc2ccc(N3CCOCC3)cc2)cc1OC | 12.6%
CC(=O)c1ccc(NC(=O)c2noc(C(C)C)c2[N+](=O)[O-])cc1 | 17.1%
CCCC(=O)Nc1ccc(Cl)c(NC(=O)c2cccnc2Cl)c1 | 10.7%
COc1cc(C(=O)N2CCN(Cc3ccc4c(c3)OCO4)CC2)c([N+](=O)[O-])cc1OC | 7.28%
CN(C)CCNS(=O)(=O)c1ccc(Cl)cc1 | 13.5%
CCC1CCC2(CC1)SCC(=O)N2c1ccccc1 (centres unmarked) | 13%
O=C(CCNC(=O)c1ccccc1)OCC(=O)c1ccccc1 | 9.03%
CCOc1ncccc1C(=O)OCC(=O)Nc1ccc(-c2nc3ccc(C)cc3s2)cc1 | 20.8%
CCCCCNC(=O)c1ccc2c(=O)n(CCCN3CCCC3=O)c(=S)[nH]c2c1 | 7.16%
Cc1cc(CNC(=O)c2cccc(OC3CCN(S(=O)(=O)N(C)C)CC3)c2)on1 | 4.35%
COc1cc(C(=O)NCc2ccc(C(=O)NCC(OC)OC)cc2)cc(OC)c1OC | 11%
COc1ccc(CC(=O)Nc2ccccc2C(=O)NCCc2ccccc2)cc1 | 16.5%
Cc1csc(N(C(=O)c2ccccc2F)c2ccccc2)n1 | 10.2%
CCC(=O)Nc1cccc(NC(=S)NC(=O)c2ccccc2Cl)c1 | 7.68%

SMILES | hERG current change (%, negative = inhibition) at 1uM
COc1ccccc1CNc1ncccn1.O=C(O)C(=O)O | 14.2%
COc1cc(NC(=O)Cc2cccs2)cc(OC)c1 | 3.14%
COC(=O)c1c(C(=O)OC)c(-c2ccc(C)cc2)n2c1CS(=O)(=O)C2 | 2.88%
COc1ccc(S(=O)(=O)N2CCCCC2)cc1NC(=O)c1ccccc1 | 15%
S=C(NCc1ccccc1)NCc1ccco1 | 10%
O=C(CCN1CCN(Cc2ccccc2)CC1)Nc1cccc(Cl)c1 | -45%
O=C(NCCS(=O)(=O)N1CCN(c2ccccc2)CC1)c1ccc2c(c1)OCO2 | 6.24%
O=C(Cc1n[nH]c(=O)c2ccccc12)OCC(=O)c1ccc(OC(F)F)cc1OC(F)F | 4.99%
COCCCN1C(=O)c2ccc(C(=O)NCc3ccccn3)cc2C1=O | 4.25%
COc1cc(NC(=O)c2ccc(C)cc2)c(OC)cc1NC(=O)CN1CCCCC1 | -0.012%
COc1cc(CC(=O)OCC(=O)Nc2ccc3c(c2)OCO3)cc(OC)c1OC | 12.3%
COc1cc(OC)cc(C(=O)NNC(=O)CCC(=O)c2cccs2)c1 | 10.5%
O=C(NCc1cccnc1)C(=O)Nc1nccs1 | 14.7%
Cc1ccc2[nH]c(C)c(/C=N/Nc3nc4ccccc4s3)c2c1 | 4.65%
COc1ccccc1Nc1cc(C(=O)N2CCc3ccccc3C2)c2ccccc2n1 | 12.6%
CCOC(=O)C1CCCN(Cc2cc(OC)c(O)c(OC)c2)C1 (centres unmarked) | 8.1%
COc1ccc(S(=O)(=O)N(C)CC(=O)Nc2ccc(C(F)(F)F)cc2)cc1Cl | 13.6%
CCSC1(SCC)N=C(N)C2(C#N)C(c3ccccc3)NC3=C(CCC3)C12C#N (centres unmarked) | 14.4%
Cn1c(CSCc2ccc(Cl)cc2Cl)n[nH]c1=S | 9.71%
O=C(CNC(=O)c1ccc(Br)cc1)N=Nc1c(O)[nH]c2ccc([N+](=O)[O-])cc12 | 13.9%
O=C(OCc1ccc(COC(=O)c2ccc(O)cc2)cc1)c1ccc(O)cc1 | 12.9%
COc1cc([N+](=O)[O-])ccc1NC(=S)N1CCN(c2ccccn2)CC1 | -5.05%
O=C(NCCCN1CCOCC1)c1c(F)c(F)c(F)c(F)c1F | 17.6%

SMILES | hERG current change (%, negative = inhibition) at 1uM
CC(C)(C)c1ccc(-c2nnc(SCCC#N)n2C2CCCC2)cc1 | 9.93%
CCC/C(=C1/C(=O)CC(C)(C)C(C(=O)OC)C1=O)N1CCCC1 (centres unmarked) | -9.52%
CCOC(=O)c1ccccc1NC(=O)c1c(O)c2ccccc2n(CC)c1=O | 13.7%
O=C(Nc1ccccc1N1CCOCC1)c1cc(Cl)c2c(c1)OCO2 | 21.6%
CC(=O)Nc1ccc(C(=O)CCl)cc1 | 11.4%
CCCCNC(=O)N1CCN(C(=O)c2ccco2)CC1 | 0.681%
CC(C)OP(=O)(OC(C)C)C1(O)C(=O)Nc2ccc(Br)cc21 (centres unmarked) | -0.0893%
O=C1c2ccccc2C(=O)N1CCCCN(C(=O)c1cc([N+](=O)[O-])cc([N+](=O)[O-])c1)c1ccc(Cl)cc1 | 7.16%
Cc1ccc(/C(CSc2nccn2-c2ncc(C(F)(F)F)cc2Cl)=N\O)cc1 | 7.94%
COc1cccc(OCC(=O)N2CCC3(CC2)CC(=O)c2ccccc2O3)c1 | -5.23%
S=C(NCCN1CCOCC1)Nc1ccc(-c2nc3ccccc3[nH]2)cc1 | 13.4%
Cc1ccc(OC(=O)CN2C(=O)c3ccccc3C2=O)cc1C | 18.1%
CCOc1c2ccc(C(=O)NCCc3cccs3)cc2nn1CC | 8.71%
COC(=O)c1nn2c(C(F)(F)F)cc(-c3ccc(Br)o3)nc2c1Br | 9.88%
C=C(C)C(=O)NNc1ccccc1 | 14.4%
Cn1c(COc2ccccc2)nnc1SCCSc1nnc(COc2ccccc2)n1C | -3.39%
Cc1ccc(-c2nsc3c(N4CCC(C(N)=O)CC4)ncnc23)cc1 | 10.6%
COc1cc(C(=O)Oc2c(OC)cc(C(=S)N3CCOCC3)cc2OC)cc(OC)c1OC | 15%
Cc1nc2cc(N3CCCCC3)c(NC(=O)c3ccncc3)cc2c(=O)n1Cc1ccc(Cl)cc1 | 18.9%
O=S(=O)(c1cccc2c(S(=O)(=O)N3CCCC3)cccc12)N1CCCC1 | -2.37%
